# Results from PubChem BioAssay AID1347073 (National Center for Advancing Translational Sciences (NCATS), 2019).
# The whole screen tested about 45,000 compounds, of which about 200 (0.44%) were called active. Not shown: some 7% with an inconclusive outcome. Calls follow the shape of the dose curve; as a rule, active = well fitted activation curve with a large enough effect; inconclusive = small, poorly fitted or top-dose-only effect; inactive = no such curve, though single readings can be large or run the other way. This is one part of the list.
# Assay: qHTS of TDP-43 Inhibitors: NCGC Sytravon Library Screen; also: 0% is about no effect; nearly all actives have a fitted effect of over 55% in size
# Details: yeast TDP-43 toxicity rescue, BacTiter-Glo growth, 24 h; series mostly up to 46.1 µM; growth rescue (activation): at the top concentration
# In short: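 TDP-43-expressing yeast, pregrown in raffinose, seeded at OD600 0.02 in galactose medium with compound for 24 hr at 30 deg C. Growth read by BacTiter-Glo luminescence, so rescue of toxicity appears as activation.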
row,SMILES,growth rescue (activation)
1,CC(=O)Oc1cccc(/C=C2\Sc3ccccc3C2=O)c1,inactive: -11.2%
2,CCn1c(NCc2ccccc2NS(=O)(=O)c2ccc(C)cc2)nc2ccccc21,inactive: 12.1%
3,CC(=C/c1ccccc1)/C=N/NC(=O)c1ccccn1,inactive: 29.4%
4,N/C(=N\OCc1ccc([N+](=O)[O-])cc1)c1ccccn1,inactive: 12.9%
5,Cc1cc(C)c2oc(C(=O)NCCc3ccc(S(N)(=O)=O)cc3)cc(=O)c2c1,inactive: 28.8%
6,CN1CCN(C(=O)c2ccc3c(c2)NC(=O)C(N2CCOCC2)S3)CC1 (stereo unspecified),inactive: 10.9%
7,CCOC(=O)c1sc(N2C(=O)C(O)=C(C(=O)c3ccco3)C2c2ccc(C)o2)nc1C (stereo unspecified),inactive: 17%
8,O=C(CCSc1ccccc1)Nc1ccc(OCc2ccccc2)cc1,inactive: 12.6%
9,O=C(CCNC(=O)c1ccc(Br)cc1)NNC(=O)c1ccccc1,inactive: -9.16%
10,COc1ccc(C(C(=O)NCC2CCCO2)N(C(=O)CNC(=O)c2cccs2)c2ccc(C(C)=O)cc2)cc1OC (stereo unspecified),inactive: -4.65%
11,O=C(CSC(=S)N1CCCCC1)Nc1ncc2c(n1)CC(c1ccco1)CC2=O (stereo unspecified),inactive: 4.28%
12,CCN1/C(=C2\SC(=S)N(Cc3ccccc3)C2=O)Sc2ccccc21,inactive: 17.8%
13,O=C(Nc1cccc(S(=O)(=O)NC2=NCCCCC2)c1)c1cc(-c2ccccc2Cl)nc2ccccc12,inactive: 16.4%
14,COc1ccc(C(=O)NC2CC2)cc1OC1CCN(Cc2ccc(F)cc2F)CC1,inactive: -7.4%
15,NS(=O)(=O)c1ccc(NC(=O)COC(=O)Cc2ccc(Cl)cc2)cc1,inactive: 5.82%
16,O=C(O)c1ccccc1NS(=O)(=O)c1ccc(NNC(=S)Nc2ccc(OC(F)F)cc2)c([N+](=O)[O-])c1,inactive: -18.5%
17,CN(Cc1nc(Cc2cccc(C(F)(F)F)c2)no1)C1CC(C)(C)NC(C)(C)C1,inactive: 11.8%
18,CC(=O)C1=C(C)NC(SCC(N)=O)=C(C#N)C1c1ccco1 (stereo unspecified),inactive: -1.01%
19,O=C(CSc1nnc(SCc2ccccc2)s1)N/N=C/C=C/c1ccco1,inactive: 15.5%
20,CSc1nc(NS(=O)(=O)c2cc(Br)ccc2Br)cc(=O)[nH]1,inactive: -8.5%
21,COc1ccc(CC(=O)N2CCC(C)(C(=O)NS(=O)(=O)C3CC3)C2)cc1OC (stereo unspecified),inactive: -3.35%
22,COC(=O)c1ccc(S(=O)(=O)NNC(=O)COc2ccc(C)cc2)cc1,inactive: 0.238%
23,CN(C)c1ccc(/C=C/c2nc3ccccc3c(=O)n2-c2ccc(C(=O)O)cc2)cc1,inactive: -5.61%
24,CN1CCN(C(c2ccc(Br)cc2)c2cc(Cl)c3cccnc3c2O)CC1 (stereo unspecified),inactive: -91.5%
25,CCCN1C(=O)NC2(O)C(=O)c3ccccc3C12O (stereo unspecified),inactive: 2.46%
26,COc1ccc(CCNC(=O)c2c(N)no[n+]2[O-])cc1OC,inactive: 21.7%

row,SMILES,growth rescue (activation)
1,COCC(=O)NC1CCN(S(=O)(=O)c2cccc(C(C)=O)c2)CC1,inactive: -0.975%
2,CS(=O)(=O)N(CCc1ccccc1)CC(=O)N1CCCC1,inactive: 8.27%
3,COc1cc([N+](=O)[O-])ccc1NC(=O)Cc1ccc(F)cc1,inactive: -8.51%
4,Nn1cc(-c2ccccc2)nc1SCC(=O)N1CCN(S(=O)(=O)c2ccc3ccccc3c2)CC1,inactive: 0.436%
5,O=C(NCCCN1CCOCC1)c1ccc(NC(=O)C2COc3ccccc3O2)cc1 (stereo unspecified),inactive: 9.62%
6,O=C(O)CC1(CC(=O)Nc2ccc(C(F)(F)F)cc2)CCCC1,inactive: 8.56%
7,N#CC(=C(O)CN1CCN(c2ccccc2F)CC1)c1nc(-c2ccc(Cl)cc2)cs1,inactive: 5.76%
8,COc1ccccc1C(=O)NCC(=O)N/N=C/c1ccc2c(c1)OCO2,inactive: 18.7%
9,Cc1ccccc1C(=O)NC(C)c1ccc2c(c1)CCCC2 (stereo unspecified),inactive: 22.4%
10,C/C(CC(=O)Nc1cc(C)ccn1)=N\NC(=O)c1ccncc1,inactive: -11.9%
11,Cc1ccc(Cl)cc1NC(=O)Cn1cc(C(F)(F)F)cc(Cl)c1=O,inactive: 3.02%
12,CN(C)S(=O)(=O)N1CCN(c2ccc([N+](=O)[O-])cc2)CC1,inactive: 5.23%
13,Cc1ccc(-c2nc(CSc3nc4ccccc4c(=O)n3CCO)cs2)cc1,inactive: -19.8%
14,CC(=O)c1ccc(NC(=O)NCc2ccc(F)cc2)cc1,inactive: 12.3%
15,O=C(O)CC(Cc1ccccc1)C(=O)Nc1ccc([N+](=O)[O-])cc1 (stereo unspecified),inactive: 9.55%
16,C=C(C)CN(CC)Cc1c(C(=O)N(C)CCCC)nc2ccccn12,inactive: 6.11%
17,COCCN1C(=O)c2[nH]nc(-c3ccccc3O)c2C1c1ccc(OC)cc1 (stereo unspecified),inactive: 6.36%
18,O=C(OCC(=O)N1CCCCC1)c1ccc(OC(F)(F)F)cc1,inactive: 11.2%
19,CCCOC(=O)Nc1cc(OC)ccc1[N+](=O)[O-],inactive: 24.6%
20,CSc1ccc(OC2(C)CCN(Cc3cc4ccccc4o3)C2)cc1 (stereo unspecified),inactive: 8.96%
21,COC(=O)c1cc2oc3ccccc3c2n1Cc1c(F)cccc1Cl,inactive: -10.9%
22,COc1cccc(NC(=O)CNC(=O)c2ccc(OC)c(OC)c2)c1,inactive: -12.2%
23,Cc1ccc(-c2nn(-c3ccccc3)cc2C(=O)N2CCOCC2)cc1C,inactive: 12.1%
24,COCCCNC(=O)CCCCCNS(=O)(=O)c1ccc(Br)cc1,inactive: -5.31%
25,c1cncc(CNc2ncnc3sc4c(c23)CCC4)c1,inactive: 10.6%
